# Measured values published in PubChem BioAssay AID1458 (National Center for Advancing Translational Sciences (NCATS), 2008).
# Values joined by “and” are separate entries in the source; they are usually repeats but may differ in a detail not shown here. Identical values can stand only once. In all, about 210,000 compounds went through this assay and about 5,900 (2.8%) were called active. Inconclusive means that the source gave no clear call. Such entries were picked first, then a sample of the others. The call rests on the fitted dose curve; in most records, active means well fitted activation curve with a large enough effect; inconclusive means small, poorly fitted or top-dose-only effect; inactive means no such curve, though single readings can be large or run the other way. Potencies of inconclusive entries are doubtful fits and often do not repeat.
# Experiment: qHTS Assay for Enhancers of SMN2 Splice Variant Expression; further: nearly all actives have a fitted effect of over 55% in size; on activity change, positive = activation: % of control where 0% means no effect
# Conditions: HEK293 SMN2-luciferase splicing reporter, luminescence, 30-36 h; activity change, positive = activation: at 46.1 µM (top of the series)
# Summary of the method: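 qHTS luciferase splicing reporter: luminescence rises when SMN2 exon 7 is included in transfected HEK293 cells. Compound exposure lasted 30-36 h at 37C, with 4.5 mM final sodium butyrate as control, followed by a ONE-Glo read.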
# Potency means the concentration at half of the fitted maximal effect; tags describe the fitted curve by direction and shape.
Structure (SMILES),Potency,"activity change, positive = activation"
CN(C)/C=C(\C#N)C(=O)N/N=C/c1ccccc1,"inconclusive: 2.24 µM [activator, partial curve, poor fit]",–
C/C(=N\NC(=O)c1nn(C)c(C)c1Br)c1ccc(NC(=O)c2ccccc2F)cc1,"inconclusive: 35.5 µM [activator, single point]",–
Cc1ccc(CSc2nc3ccncc3n2CC(=O)Nc2cc(C)cc(C)c2)cc1,"inconclusive: 17.8 µM [activator, single point]",–
CCOc1ccc(OCc2ccc(C(=O)N3N=C(C(F)F)CC3(O)C(F)F)o2)cc1 (stereo not drawn),"inconclusive: 8.91 µM [activator, partial curve, poor fit]",–
COc1ccc(N2CS(=O)(=O)/C(=C/N(C)C)C2=O)cc1,"inconclusive: 12.6 µM [activator, single point]",–
Cc1cc(C)c2nc(C(F)(F)F)nc(NCCCN3CCCC3=O)c2c1,"inconclusive: 3.55 µM [activator, partial curve]",–
COc1ccc(N2C(=O)c3ccccc3NC23CCCC3)cc1,active: 11.2 µM,–
CC1(C(=O)OCc2cc(=O)n3cc(Br)ccc3n2)CC1(Cl)Cl (stereo not drawn),"inconclusive: 22.4 µM [activator, single point]",–
COc1ccc(C2OC(=O)c3ccccc3S2)cc1 (stereo not drawn),–,inactive: -17.2%
O=C1CC(c2ccccc2)Sc2ccccc2N1Cc1ccc(F)cc1 (stereo not drawn),"inconclusive: 3.55 µM [activator, single point]",–
CCCCN1C(=O)/C(=C/C=C2\SCCN2C)SC1=S,active: 15.8 µM,–
O=C(COC(=O)c1ccc(NS(=O)(=O)c2cccs2)cc1)Nc1nc2c(F)c(F)c(F)cc2s1,–,inactive: -5.33%
COc1cc(CNc2ccc(N3CCOCC3)c(C(=O)O)c2)ccc1OCC(N)=O,"inconclusive: 0.501 µM [activator, full curve, poor fit]",–
c1ccc2sc(Sc3ncnc4sccc34)nc2c1,"inconclusive: 12.6 µM [activator, single point]",–
Cc1ccc(-c2nnc(Nc3ccc(C(N)=O)cc3)c3ccccc23)cc1S(=O)(=O)NCC1CCCO1 (stereo not drawn),"inconclusive: 0.0035 µM [activator, full curve, poor fit]",–
O=C(CSc1nnc2n1CCCN2)c1ccc(Cl)cc1,"inconclusive: 0.0355 µM [activator, full curve, poor fit]",–
CCC(C)(C)NC(=O)/C=C/c1cnc2ccccc2n1,"inconclusive: 35.5 µM [activator, single point]",–
O=C(Nc1cccnc1)Nc1ccc2c(c1)OCO2,"inconclusive: 17.8 µM [activator, partial curve]",–
CCNS(=O)(=O)c1ccc(NC(=O)CSc2nc(-c3ccco3)cc(C(F)(F)F)n2)cc1,–,inactive: -10.1%
C/C(=N\NC(=O)c1ccco1)c1ccc(NC(=O)c2ccccc2)cc1,"inconclusive: 10 µM [activator, partial curve]",–
CCOC(=O)C1(P(=O)(c2ccccc2)c2ccccc2)CCC1,"inconclusive: 0.891 µM [activator, full curve]",–
CN(CC(=O)N1CCN(c2cccc(Cl)c2)CC1)S(=O)(=O)c1cccs1,"inconclusive: 0.112 µM [activator, full curve, poor fit]",–

Structure (SMILES),Potency,"activity change, positive = activation"
COc1cccc(NC(=O)CCCOc2cc(=O)n(C)c3ccccc23)c1,"inconclusive: 6.31 µM [activator, partial curve]",–
COc1cc(NC(=O)c2ccc(C)c(Cl)c2)ccc1NC(=O)c1cc2ccccc2o1,–,inactive: 6.56%
Cc1cc(C)nc(NS(=O)(=O)c2ccc(N3C(=O)C4C5C=CC(C5)C4C3=O)cc2)n1 (stereo not drawn),"inconclusive: 0.891 µM [activator, single point]",–
c1ccc(Nc2nc(-c3ccncc3)nc3ccccc23)cc1,–,inactive: -30.7%
COc1ccc(OCC(=O)Nc2ccc(-c3nc4cc(C)cc(C)c4o3)cc2)cc1,"inconclusive: 0.501 µM [activator, full curve]",–
O=C(NCC1CCCO1)c1ccc2c(=O)n(CC3CCCO3)c(=S)[nH]c2c1 (stereo not drawn),–,inactive: -16%
N/C(Cc1cccs1)=N\OC(=O)COc1ccc(Br)cc1Cl,–,inactive: 6.24%
O=C(NCc1cccnc1)[C@@H]1[C@@H](C(=O)O)[C@H]2CC[C@@H]1O2,–,inactive: -12.2% [at 9.22 µM]
CCn1cnc2cc(NCc3nc4ccccc4n3Cc3ccccc3)ccc21,"inconclusive: 7.08 µM [activator, partial curve, poor fit]",–
CC(=O)Oc1ccc(C2OC(=O)c3ccccc3N2C(C)=O)cc1 (stereo not drawn),–,inactive: 0.994%
COc1ccccc1Nc1nc(-c2c(C)[nH]c3ccccc23)cs1,active: 14.1 µM,–
OC[C@H]1O[C@@H](n2cnc3c(Nc4ccccc4)ncnc32)[C@H](O)[C@H]1O,"inconclusive: 1 µM [activator, partial curve]",–
CCCOc1cccc(C(=O)Nc2cc(NC(=O)c3ccco3)ccc2OC)c1,–,inactive: -35.1%
Cc1cc(C)nc(N/N=C/c2ccco2)n1,"inconclusive: 3.98 µM [activator, full curve, poor fit]",–
Cc1cccc(NC(=O)CS(=O)(=O)Cc2ccccc2)n1,"inconclusive: 0.158 µM [activator, full curve]",–
COCCSc1nnc(NC(=O)c2ccc3c(c2)OCO3)s1,"inconclusive: 14.1 µM [activator, partial curve]",–
CC[C@H](C)NC(=O)CCCCCn1c(=S)[nH]c2c([nH]c3ccc(OC)cc32)c1=O,"inconclusive: 3.98 µM [activator, partial curve]",–
CC1(C)Cc2c(c(N3CCOCC3)nc3sc4c(NCc5ccco5)nnnc4c23)CS1,"inconclusive: 20 µM [activator, partial curve, poor fit]",–
Fc1cc(F)c2nc(N3CCCCC3)sc2c1,"inconclusive: 22.4 µM [activator, partial curve, poor fit]",–
CC1CCN(c2nc3ccc(C(=O)NCc4ccccc4)cc3s2)CC1,–,inactive: -23.6%
COc1ccc(-c2cc(=O)c3c(O)cc(O)cc3o2)cc1,"inconclusive: 14.1 µM [activator, single point] and inconclusive: 25.1 µM [activator, single point]",–
